From PubChem BioAssay AID686978 (National Center for Advancing Translational Sciences (NCATS), 2013)
The whole screen tested about 420,000 compounds, of which about 64,000 (15%) were called active. Inconclusive results, whose numbers are uncertain, are shown with a selection of clear calls. The call rests on the fitted dose curve; in most records, active means well fitted inhibition curve with a large enough effect; inconclusive means small, poorly fitted or top-dose-only effect; inactive means flat fitted curve, though single readings scatter. No potency is given beside an inconclusive call; the fits are too rough.

assay: qHTS for Inhibitors of human tyrosyl-DNA phosphodiesterase 1 (TDP1): qHTS in cells in absence of CPT; conditions: DT40 Tdp1-/- hTDP1 cells, no CPT, ATP luminescence, 48 h; activity change, negative = growth inhibition: at 46.2 µM (top of the series) unless noted; further: nearly all actives have a fitted effect of over 55% in size
Method in brief: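 Readout: luminescence from CellTiter-Glo after 30 min in the dark at RT. Cells: DT40 Tdp1-/- with stable hTDP1, 400/well. Exposure: compounds alone, ≥48 hr, 37 °C.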
On the % scale 0 is the no-effect control and ±100 the full control effect; potency means the concentration at half of the fitted maximal effect; tags describe the fitted curve by direction and shape.

Row | Compound | activity change, negative = growth inhibition | Potency
1 | O=C(NCC1CCCO1)c1ccc2c(c1)C(=O)N(c1cccc([N+](=O)[O-])c1)C2=O (configuration not stated) | inactive: -16.4% | –
2 | CCc1nnc(NC(=O)CSc2nc(-c3ccccc3)cc(-c3ccc(F)cc3)c2C#N)s1 | – | inconclusive [inhibitor, partial curve]
3 | CCCCn1nc(NC(=O)c2cccc(Cl)c2)c2cc3cccc(C)c3nc21 | – | inconclusive [inhibitor, single point]
4 | COc1ccc(C(=O)Nc2ccc(Oc3ncnc4sc(-c5ccccc5)cc34)cc2)cc1OC | – | inconclusive [inhibitor, single point]
5 | CC(C)(C)NC(=S)N1CCC2CC1c1cc(-c3ccc4c(c3)OCO4)ccc12 (configuration not stated) | – | inconclusive [inhibitor, single point]
6 | CCOc1cc(/C=C2\SC(=S)N(NC(=O)c3cccnc3)C2=O)ccc1O | – | inconclusive [inhibitor, partial curve, poor fit]
7 | COc1cccc(N2CCN(C(=O)c3cc4c(=O)oc5ccc(C)cc5c4s3)CC2)c1 | – | inconclusive [inhibitor, single point]
8 | Cc1cccc(NC(=O)CSc2nc(C)c(CC(=O)c3ccc(Br)cc3)c(C)c2C#N)c1C | – | active: 14.6 µM
9 | O=C(Nc1c2c(nn1-c1ccc(Cl)cc1)CS(=O)(=O)C2)c1ccc2c(c1)OCO2 | inactive: -3.07% | –
10 | CN1C[C@@H]2C(c3ccccc3)C3(c4cccnc4)CC2(C3)[C@H]1c1ccccc1 (some centres not stated) | inactive: -28.9% | –
11 | CCCC(=O)N1CCN(c2nc3ccc(Br)cc3s2)CC1 | inactive: -103% | –
12 | O=C(CCNC(=O)c1ccccc1Cl)NCC1CCCO1 (configuration not stated) | inactive: 0.588% | –
13 | CSCC[C@H](NC(=O)OC(C)(C)C)c1nnc(SCc2ccc(F)cc2)o1 | – | inconclusive [inhibitor, single point]
14 | C[C@@]12CCC3[C@@](CC[C@@H]4[C@](C)(C(=O)O)CCC[C@@]34C)(C[C@H]1O)C2 (some centres not stated) | inactive: 1.86% | –
15 | Cn1c(CSCc2ccccc2)n[nH]c1=S | inactive: -19.7% | –
16 | COc1ccc(-c2nc3cc(C)ccc3cc2CN(C(=O)c2csc(C)n2)C2CC2)cc1OC | inactive: -19.6% | –
17 | CC(OC(=O)c1nc(Cl)ccc1Cl)C(=O)Nc1ccc2c(c1)OCCO2 (configuration not stated) | inactive: -21.1% | –
18 | COCCC(=O)N1CCC(n2nccc2NC(=O)CCc2ccccc2)CC1 | inactive: -25.7% | –
19 | CCCn1c2ccccc2c2cnn(CC(=O)N3CCCC(C)C3)c(=O)c21 (configuration not stated) | – | inconclusive [inhibitor, single point]
20 | Cc1ccc(-c2ccc(=O)n(CC(=O)Nc3ccc4c(c3)OCCO4)n2)cc1 | inactive: 5.36% | –
21 | Cc1ccccc1CC(=O)c1ccc(O)c(C)c1O | – | inconclusive [inhibitor, single point]
22 | Cc1c(C(=O)N2CCOCC2)[nH]c2ccc(OCc3ccccc3)cc12 | – | inconclusive [inhibitor, partial curve]
23 | O=C(c1sc2cc(Cl)ccc2c1Cl)N1CCN(CCc2ccccn2)CC1 | – | inconclusive [inhibitor, single point]
24 | O=C(NCCCc1nc2ccccc2n1Cc1ccc(Cl)cc1)C1CCCCC1 | – | active: 20.6 µM

Row | Compound | activity change, negative = growth inhibition | Potency
25 | Cc1ccc(CNC(=O)C2CCN(S(=O)(=O)c3cn(C)cn3)CC2)cc1 | inactive: -16.2% | –
26 | COc1ccc(NC(=S)NCCc2ccc(Cl)cc2)c(OC)c1 | – | inconclusive [inhibitor, single point]
27 | CCCn1c(N)c(C(=O)CSc2nnc3n2CCCCC3)c(=O)n(C)c1=O | inactive: 1.48% | –
28 | Cc1ccc(SC2CC(=O)N(c3ccc4c(c3)OCCO4)C2=O)cc1 (configuration not stated) | – | inconclusive [inhibitor, single point]
29 | COc1ccc2c(C)cc(SCC(=O)Nc3ncc(Cl)cc3Cl)nc2c1 | – | inconclusive [inhibitor, full curve, poor fit]
30 | C=CCNc1nc2c(c(=O)[nH]c(=O)n2C)n1Cc1cccc(C)c1 | – | inconclusive [inhibitor, single point]
31 | COc1ccc(OC)c(NC(=O)c2cc(-c3cc(F)ccc3OCC3CCCO3)n[nH]2)c1 (configuration not stated) | – | active: 9.2 µM
32 | O=C(CCn1cccc(C(F)(F)F)c1=O)Nc1cccc(C(F)(F)F)c1 | inactive: -18.9% | –
33 | COc1cccc(CNS(=O)(=O)c2ccc(N3CCCC3=O)cc2)c1 | – | inconclusive [inhibitor, partial curve]
34 | O=C(Nc1ccc(CN2CCOCC2)cc1)c1ccc(N2CCCC2)c([N+](=O)[O-])c1 | – | inconclusive [inhibitor, partial curve]
35 | Cc1ccc(NS(=O)(=O)c2ccc(Cl)c(C(=O)Nc3ccccc3-c3nc4ccccc4[nH]3)c2)cc1C | – | active: 8.2 µM
36 | CCc1ccccc1-n1c(C)nc2cc(C(=O)NCCc3ccc(Cl)cc3)ccc21 | – | inconclusive [inhibitor, single point]
37 | COc1ccc(OC)c(/C(C)=N\NC(=O)c2cc3cc(Cl)ccc3n2C)c1 | – | active: 4.61 µM
38 | COCc1c(C(=O)N2CCN(Cc3ccc(C#N)cc3)CC2)oc2ccccc12 | – | active: 20.6 µM
39 | CC(CN1CCCCC1)NC(=O)c1scnc1-c1ccccc1 (configuration not stated) | inactive: -3.8% | –
40 | CCN1C(=O)C(O)(CC(=O)c2cc(C)ccc2C)c2ccccc21 (configuration not stated) | inactive: -18.4% | –
41 | CC(=O)c1ccc(N2CCN(S(=O)(=O)c3cc(-c4cc(C)no4)ccc3C(C)C)CC2)cc1 | – | inconclusive [inhibitor, single point]
42 | O=C(N/N=C/c1cccnc1)c1cc(-c2ccccc2)nc2ccccc12 | – | inconclusive [inhibitor, full curve]
43 | COc1cc(NC(=O)c2ccc(C)cc2C)ccc1NC(=O)c1cccs1 | inactive: -17.3% | –
44 | COc1cccc(-c2cc(C(=O)Nc3c(C)nn(Cc4ccccc4C)c3C)no2)c1 | – | inconclusive [inhibitor, single point]
45 | Cc1cc(-c2ccccc2)cc(C)n1 | inactive: -12.2% | –
46 | Cc1ccc2cc(CCNC(=O)c3ccc(C)c([N+](=O)[O-])c3)c(=O)[nH]c2c1 | – | inconclusive [inhibitor, single point]
47 | O=C1Nc2ccc(Cl)cc2C(=O)C1(F)c1ccccc1 (configuration not stated) | – | inconclusive [inhibitor, full curve, poor fit]
